# Experimental data as given in the supplement of paper PMC11417369.
# This is one part of the list.
# Test system: PF3D7_0420300 AP2 domain 1 (GST-tagged)
# Test: gcPBM binding intensity (ln(normalized median fluorescence intensity)); higher = stronger DNA binding
# How it was run: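 Alexa488 anti-GST antibody, scanned at 488 nm, detected GST-tagged P. falciparum DNA-binding domains that had been expressed in E. coli and incubated for 1 h on an Agilent 4 × 180k array. The array carried primer-extended double-stranded 36-bp intergenic genomic probes and negative controls. Binding intensity is the highest Masliner-normalised natural-log median intensity across replicate spots of either orientation of each probe.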
row,Sequence,gcPBM binding intensity (ln)
1,TTTAAAAAAATATATACACACATATATATATATATA [CACACA_site617],9.13
2,ATAGAAATAAAATAAAATAAAAAAAAAATAATGAAA [CACACA_negctrl_site1565],9.45
3,TTATAATAAGATTGTTGTACTTATATTCCTTCTATA [XGTACX_site3173],9.27
4,AATACATATTCAAAGGTGCAAAATAAAAATATACAT [GTGCAC_site9743],9.63
5,TAGTTATAAGAGTTACAAAGAATACCGGAAATATAG [CACACA_negctrl_site1829],9.39
6,TGTTTTGTATATATAGCATGCAGTAAGGGAAAAAAA [TGCATGCA_site652],9.29
7,TCGTTTCATATTTATCATGAGATAATCACACGAACA [TGCATGCA_negctrl_site497],9.08
8,AATGTCAATTTTAATAGTACACAAATATATATATAT [XGTACX_site521],9.18
9,AATGACCATTTTTAAAATTACAAATACATACAACTG [TGCATGCA_negctrl_site420],9.22
10,AAGTATTATTATAAGACACACATGTATTTAAGTATA [CACACA_site4922],9.42
11,TAATTTTTATTTATAATAATATATGACATATATCCA [XGTACX_negctrl_site359],8.91
12,GGAATAATATAAAACACACACATAAATATAAATATA [CACACA_site3376],9.9
13,TAATTTTTTTTTTTTTTTTTTTTTTTTTTTTTCCTT [CACACA_negctrl_site1095],8.54
14,TTTTATTCCTATTTATTTATATTTTTGTCTTATATC [CACACA_negctrl_site125],9.46
15,TTAAGAATATCTACATGTACATACCAAAGAAATACA [XGTACX_site3125],9.27
16,ATGAACAAAATGTAATGTACGAATAATTATTCATAT [XGTACX_site4812],9.33
17,TATAGACAAACACATACATGCATACATACATACATA [TGCATGCA_site273],9.34
18,AAAAAAAAGTTCTACACACACAAAAAAATATTTTTT [CACACA_site2309],9.74
19,GTGTGCTTTTTACGAGTGCAAGTATTTTGGTGGTTA [GTGCAC_site9496],9.41
20,GTACACATATAATATACACACAACAAATATGCACAT [CACACA_site1010],9.92
21,ATTTTTTATGAAAATAAACACACGATTTATTATATA [CACACA_site1312],9.16
22,TTTTCAGAAAAGAGAAACTTTATTTTTCACAACCGA [TGCATGCA_negctrl_site389],8.85

row,Sequence,gcPBM binding intensity (ln)
1,TAAAAAATTATTAAACGTACGAGACTTTTTATCAGT [XGTACX_site2219],9.13
2,TGTAGTCATTAGTCAAATTAGAATTAAATATATATT [GTGCAC_negctrl_site643],9.03
3,CATAAAAATGGATACACACACATAATATATTTATAT [CACACA_site7669],9.85
4,ACAATATATTCATATTGTACATAAAATAAGGCTAAC [XGTACX_site6728],9.47
5,TTATATATAGATCACACACACACACCGGTTTTAAAA [CACACA_site4220],10.2
6,AAATTTTAATTAGGAACACACATATATATATATATA [CACACA_site5673],9.13
7,TATTTATCTATATATTGTACTTATTAGTCTTAATGT [XGTACX_site4242],9.39
8,TCTTTTTTAATATAATATATTTTTATTAAGTAAATC [TGCATGCA_negctrl_site408],8.94
9,TAAATTTATGGACACACACACATATATATATATATA [CACACA_site4620],9.72
10,TATAAAAATAATATTACACACATGTAAAATGGGGGT [CACACA_site9071],9.81
11,AGGAATATCGAAAACTGTACTTGTATGTTTCATAAA [XGTACX_site6143],9.02
12,AATTGTATGTATGCCTGTACATATGTCTATCTTAAG [XGTACX_site1927],9.32
13,ATTTATTTATTTTTTTGTACTTATAATTTTTATTAT [XGTACX_site2656],9.46
14,TATTTTATATGAGGCACACAAATTTTAATTGTTATT [CACACA_site725],9.14
15,TATATTTAAATTCTTTCAAATCATGTTGTAATTTTT [CACACA_negctrl_site1349],9.08
16,ATACACTTAATATTATGTACATATATAAAAAAAATA [XGTACX_site1500],9.19
17,TGAGTATATAAATACACACACATATATATATTTTAA [CACACA_site5130],9.61
18,TTTTATTTTTAAGGATGTACTCAATTGTTTATATAC [XGTACX_site3965],9.15
19,TTTTTTTTTAATAAAATTATAATAAATATGAAATTA [XGTACX_negctrl_site369],8.56
20,ATATATATATATATATGTACACATATATATACTCAC [XGTACX_site8043],9.37
21,GCACATATGAATATAATACACACTTGTATTATTAAT [CACACA_site1841],9.44
22,ATTTTATATACAAAATGTACATATTTATTATATATG [XGTACX_site6732],9.22

row,Sequence,gcPBM binding intensity (ln)
1,GGAGCTATCTCCTGCACACACAATTTTTTTTTTTTT [CACACA_site2240],9.52
2,AAGGATACGCAAAAATGTACAAAATGCTTATAAATA [XGTACX_site984],9.19
3,ATTAAAATCATATACACACCCATATATATATATATA [CACACA_site5050],9.48
4,GAATAAATACCGGTGTGTACTTAAATCATTCACGAA [XGTACX_site3174],9.5
5,ATACATATCTACCTATGTACATAATACAACAAAGAT [XGTACX_site323],9.4
6,GCATGCACGGAAAAAAGTACATATATAAATTTGGTT [XGTACX_site3393],9.03
7,ATCGTTATATAATGTTGTACTTGTTATATATATATA [XGTACX_site7582],9.7
8,GGTTCTAAAAAGGGAAGTACATGGAAAAATATAAAT [XGTACX_site4639],9.34
9,AAAATTATTATGAAAAGTACAAATATGTAAACATAC [XGTACX_site5517],9.32
10,AAAATTTAGCAAAGGTGTACAAAAGATAATTAGAGT [XGTACX_site3467],9.77
11,TTTTTTAAATATATTTGTACATATGAAATAAAGATA [XGTACX_site3841],8.94
12,AATATATTTTGATATGAACAATTAATAATTTCAAAT [GTGCAC_negctrl_site170],9.12
13,TTTTTCACATCTATAAATCATCTAATCAATATTTTT [GTGCAC_negctrl_site444],9.11
14,ATTCTAATTAGTAAAGTGCAGATAAAATGATGCCCT [GTGCAC_site9578],9.08
15,TTAGAAAGAATGTATTGTACATATATATTATATATA [XGTACX_site7045],8.97
16,TGTATATTTTAGTGATGTACTAATATTATTACTAAT [XGTACX_site3952],9.19
17,ATATGTTTATTTATTTGTACTTATCATATAATAACA [XGTACX_site5486],9.35
18,TGCTTAGCACACTATCTACTTCCTTTGTTTCATAAA [GTGCAC_negctrl_site495],9.33
19,TTCATTTATATAATCACACATTTTATCATCTATGTT [CACACA_site4327],9.47
20,GTTTTATTCCATTATTGTACTTAATATAAAGAAACT [XGTACX_site3054],9.38
21,ATAAATTGAAGTAAATTTGACCTTTTTTTTTTTTTT [GTGCAC_negctrl_site354],8.93
22,ATAATAATATGTGGGTGTACATATACACATATATAT [XGTACX_site4356],9.45

row,Sequence,gcPBM binding intensity (ln)
1,AGAACATGCAAACATGCACACAGAAAAAAAAAATAT [CACACA_site8442],9.55
2,CAGCATGGTATACCTATAAAATATATATACTAACAT [TGCATGCA_negctrl_site51],9.23
3,ATGTTACACAGACACACACACATAAAAAAACAAAAA [CACACA_site7516],9.97
4,TTTTTAAAAAATAAGAAAAAATAAATATATTACAAA [XGTACX_negctrl_site191],8.94
5,GGCATATATACATATGGTACACATTTATTAATACCG [XGTACX_site2710],9.33
6,CACATACATATATATACACACAAATATATATACGCA [CACACA_site791],9.65
7,AGGATATAAAGTTGTGCATGTCAAGTGCACCGTATT [TGCATGCA_site451],9.3
8,AGAAAAATCTAAATTCGTACATAACGTTTAAACATA [XGTACX_site2511],8.97
9,GATGTGTATATTAAATGTACGAACAGTTGAGGCGAA [XGTACX_site7853],9.59
10,CCTAAATAAATGGACACACACATATATATATATATA [CACACA_site1439],9.49
11,CTTATATTAAGTATTACACACATATATATAAATGCA [CACACA_site4581],9.32
12,TTTTACGTAATATTTATACACACGAACCTTATTAAT [CACACA_site2300],9.43
13,TAGAAATAAGAAAAATGTACATATAATATTGAAAGT [XGTACX_site3043],9.66
14,TATATATATATAAGAAGTACAGAAAATTAGAAAAAA [XGTACX_site8773],9.55
15,AGTCTATAGTAATTTACACACAAAAAAATATCAGGA [CACACA_site7620],9.74
16,AGTAGTCTGGAGAAAAGTACATAGTATCTGGTAGCT [XGTACX_site2027],9.28
17,TTTATTGATAATATATATATATATATATATATATAT [GTGCAC_negctrl_site552],8.84
18,AATATCTTAGTGGATACACACATATAAATGGGTATT [CACACA_site4426],9.4
19,AAAAAATTAAAAAAAAAAAAATCATGAAAAAAACAA [CACACA_negctrl_site1673],9.36
20,TCATATGTTAAACACACACACACACCGAAAAAAACA [CACACA_site9067],10.2
21,AAAAAGGAAATAATAACACACATTAGTAATTATAAA [CACACA_site7573],9.57
